# Tested on: Fpr2^-/- neutrophils
# Assay: NADPH-oxidase activity in neutrophils from wild type versus Fpr2-/- mice
# Format: cell-based
# Conditions: mouse bone marrow neutrophils (5x10^4); fMIFL 10 nM, fMYFINILTL 50 nM
substance,measurement,value
fMIFL [reference compound],Activity in Fpr2-/- neutrophils compared with WT neutrophils,no difference

# From PMC5132201, “Formylated MHC Class Ib Binding Peptides Activate Both Human and Mouse Neutrophils Primarily through Formyl Peptide Receptor 1” (PLoS ONE, 2016)
